# Test results: the supplement of paper PMC4166925
# ± gives the standard deviation of the averaged measurements. Over roughly 33,000 sequences, “E-score (dimensionless, -0.5 to 0.5)” has its median near -0.049; the highest 2% begin near 0.37. The list shows a part of the results.
# System: T1, PmTbr T-box DNA-binding domain (GST fusion)
# T1 sequence: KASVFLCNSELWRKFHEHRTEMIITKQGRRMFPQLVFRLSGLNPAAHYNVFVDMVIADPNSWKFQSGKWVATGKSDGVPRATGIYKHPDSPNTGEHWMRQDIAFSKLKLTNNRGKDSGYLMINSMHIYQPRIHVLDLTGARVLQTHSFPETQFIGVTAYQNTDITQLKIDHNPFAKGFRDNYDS
# Experiment: PBM E-score of 8-mer (E-score (dimensionless, -0.5 to 0.5)); Tbr is Tbrain of the sea star Patiria miniata (Pm) or the sea urchin Strongylocentrotus purpuratus (Sp); higher = stronger binding preference; most listed sequences are background and not binding sites
# Conditions: the construct has about 5 more residues each side
# Summary of the method: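 Primer extension turned Universal Agilent oligonucleotide arrays double-stranded. They were incubated with 200 nM protein in PBS (pH 7.5); the protein was a GST-fused Tbr T-box DNA-binding domain expressed in BL21 E. coli at 20 °C and purified on glutathione. Every ungapped 8-mer was scored from the scanned, quantified probe intensities, and the Universal PBM Analysis Suite gave each an enrichment E-score averaged over duplicate arrays.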
row,Sequence,PBM E-score of 8-mer
1,AGGTGTTC,0.4091 ± 0.0032
2,CAGGGGGG,-0.169 ± 0.023
3,AGCTATTG,-0.026 ± 0.011
4,GATAGAGC,0.0387 ± 0.035
5,TGCCAAAA,0.236 ± 0.065
6,AAAGTTCA,-0.0127 ± 0.1
7,ACTTTACG,0.121 ± 0.0063
8,CGTGGGAA,0.189 ± 0.015
9,GTATTAAC,-0.00695 ± 0.0072
10,TAGCGGAA,-0.0364 ± 0.028
11,ATCCACTG,-0.21 ± 0.0065
12,ACAGCTAG,0.231 ± 0.017
13,ACCTTGCT,0.202 ± 0.046
14,ATATGGAT,-0.142 ± 0.012
15,CGGCACGC,0.123 ± 0.0062
16,GGGGATCA,-0.265 ± 0.033
17,CAAAGCAC,-0.0972 ± 0.039
18,CTGTCTTC,0.0449 ± 0.021
19,ACTTCGGG,0.00498 ± 0.08
20,AAAGTCCC,0.0169 ± 0.079
21,GGGCTTGA,-0.144 ± 0.047
22,CCAATTGC,-0.162 ± 0.025
23,ACACAGGG,0.00615 ± 0.023
24,AACCTGAA,-0.213 ± 0.026
25,CATGGCAA,-0.103 ± 0.035

row,Sequence,PBM E-score of 8-mer
1,TGCTGTAA,-0.19 ± 0.066
2,TTCAACAA,-0.119 ± 0.028
3,CCAACTAG,-0.185 ± 0.048
4,GCCGAACA,0.0675 ± 0.049
5,AAATTATT,-0.0805 ± 0.082
6,CCCGAATA,-0.0811 ± 0.0034
7,AAGTAGAC,-0.175 ± 0.089
8,CATAGTGG,-0.118 ± 0.038
9,AGAAGCAG,-0.0631 ± 0.041
10,ACAAGGTG,0.429 ± 0.006
11,GACGAGGA,-0.155 ± 0.049
12,CTCTGGTA,-0.212 ± 0.015
13,AGCCGTGG,-0.211 ± 0.0058
14,AGATCGTC,-0.0551 ± 0.018
15,TATCGCGA,0.268 ± 0.018
16,ACCAACTG,0.0393 ± 0.03
17,AGGCCGAA,-0.397 ± 0.041
18,GACATTAC,-0.0499 ± 0.0013
19,ATGATGAA,-0.135 ± 0.028
20,GGCGATAA,0.276 ± 0.048
21,CACATCCC,0.274 ± 0.022
22,ATTTAGCC,-0.0804 ± 0.058
23,CCATTTAC,0.036 ± 0.01
24,AAAGAGGT,0.0797 ± 0.12
25,ACCACTAT,0.0796 ± 0.026

row,Sequence,PBM E-score of 8-mer
1,ACCCAGCG,-0.00227 ± 0.047
2,AAGGGATT,-0.212 ± 0.11
3,ACTGAGGA,-0.0989 ± 0.019
4,ATTTTGAA,-0.166 ± 0.0046
5,GACTCAAC,-0.0195 ± 0.05
6,AGCAGATA,-0.0773 ± 0.13
7,CTTGCATA,-0.244 ± 0.022
8,GATACAAC,0.113 ± 0.039
9,ATTTACGG,-0.2 ± 0.029
10,TGCATGAA,-0.0976 ± 0.016
11,CCACTAAC,0.193 ± 0.018
12,CACCGTCG,0.149 ± 0.059
13,ATTTATGC,-0.0403 ± 0.011
14,GACAAAAC,0.154 ± 0.024
15,CTAAGGAC,-0.199 ± 0.029
16,TTAAGTAA,-0.192 ± 0.069
17,AGTGTATG,0.00756 ± 0.013
18,AGGCGTCA,0.4194 ± 0.0035
19,ACGCTTAG,0.119 ± 0.025
20,AGACTACA,-0.0628 ± 0.016
21,AATCGTCT,-0.0341 ± 0.11
22,CAGGTTCG,0.0766 ± 0.033
23,ATTCCGAG,-0.12 ± 0.018
24,AAGCATTC,-0.174 ± 0.068
25,CGGGGACC,-0.37 ± 0.02

row,Sequence,PBM E-score of 8-mer
1,CCAGCTCG,0.104 ± 0.017
2,TCATACAA,0.0525 ± 0.0095
3,ATATTCTG,-0.0441 ± 0.026
4,CTATTGAA,-0.141 ± 0.082
5,CGGAGGCC,-0.336 ± 0.016
6,CACTGGCA,0.109 ± 0.026
7,AATACGTC,-0.103 ± 0.026
8,CTTACGCA,0.0162 ± 0.046
9,CTAAGGTA,-0.0874 ± 0.013
10,ATTAGCGA,0.232 ± 0.018
11,ATTACATC,-0.131 ± 0.028
12,ACTTGTCC,0.094 ± 0.023
13,AGATAAGG,-0.0769 ± 0.012
14,TAGTGACA,0.398 ± 0.0059
15,GGTAGCTA,-0.302 ± 0.092
16,AGGTATAT,0.00539 ± 0.024
17,ACAAGCCT,0.0219 ± 0.054
18,GTCTGCAA,0.0447 ± 0.062
19,AGGGGATC,-0.132 ± 0.026
20,ATTGTCAG,0.134 ± 0.026
21,AGCGACCC,-0.176 ± 0.15
22,ACTGTACC,-0.155 ± 0.017
23,GAGAGACA,-0.00238 ± 0.044
24,CGTAATCC,-0.218 ± 0.03
25,AGCCGCAG,-0.155 ± 0.1

row,Sequence,PBM E-score of 8-mer
1,GACGAATA,0.0699 ± 0.023
2,CGTACAGA,-0.26 ± 0.075
3,AAGGAATG,-0.109 ± 0.08
4,ATCTTCAA,-0.234 ± 0.059
5,AATATGAG,-0.12 ± 0.0047
6,ATCTAGCC,-0.193 ± 0.013
7,ACATTGAA,-0.122 ± 0.013
8,CAGACTCG,-0.159 ± 0.062
9,ACACGCTC,0.135 ± 0.053
10,GGGGCGCA,-0.273 ± 0.015
11,CTTGCCGA,0.128 ± 0.0035
12,ATTAGCTC,-0.00311 ± 0.0071
13,CCGCACCG,0.136 ± 0.028
14,ATAACCTA,-0.148 ± 0.12
15,ACCTCAGC,0.201 ± 0.017
16,AGGGCATG,-0.148 ± 0.028
17,AGCCTACA,-0.0331 ± 0.081
18,ACCGTGAA,0.207 ± 0.017
19,CACTCGCC,0.146 ± 0.014
20,GGGCCTGA,-0.27 ± 0.045
21,CCGGTACA,-0.00601 ± 0.0053
22,CAACAGCC,-0.0907 ± 0.016
23,CACGAAGA,-0.123 ± 0.0026
24,ATGTCATC,-0.0845 ± 0.035
25,ACAGGTGC,0.4412 ± 0.0022

row,Sequence,PBM E-score of 8-mer
1,ACGTAGTA,-0.242 ± 0.018
2,ACGGGCGA,0.144 ± 0.054
3,AGTGCCAG,0.2664 ± 0.0016
4,ACTGATGG,0.0102 ± 0.053
5,GTCTCACA,0.392 ± 0.019
6,AGAGGGGA,-0.146 ± 0.012
7,AACCGGCG,-0.0858 ± 0.12
8,GATTGGAA,-0.225 ± 0.0081
9,AAGTCATA,-0.0653 ± 0.022
10,GATACTAA,-0.0565 ± 0.068
11,ACGCAAGA,-0.0593 ± 0.01
12,GCAACCGC,0.0279 ± 0.085
13,ATGGAAAG,0.0338 ± 0.0075
14,ACAGGTTG,0.234 ± 0.042
15,CCGTTTCA,-0.0032 ± 0.017
16,CAGTGTCA,0.31 ± 0.017
17,CCACGCTA,-0.0567 ± 0.028
18,CTCTACGA,-0.185 ± 0.035
19,AGCCTCCG,-0.347 ± 0.069
20,TACATAGA,-0.22 ± 0.058
21,CGCGGAAA,0.0616 ± 0.025
22,CAGCGACA,0.233 ± 0.019
23,GAAACACA,0.157 ± 0.028
24,GACCCATC,-0.173 ± 0.076
25,CATTTCGG,-0.0642 ± 0.055

row,Sequence,PBM E-score of 8-mer
1,CTGCTGCA,0.00121 ± 0.022
2,CGCAGAAC,-0.108 ± 0.059
3,AGTTTGAC,0.156 ± 0.044
4,ATCAAGAC,0.0515 ± 0.066
5,ACGGATAA,-0.1012 ± 0.00099
6,CCACTTCC,0.0762 ± 0.022
7,AGTCCTGG,-0.259 ± 0.064
8,CGCATCTC,0.0415 ± 0.027
9,AGCACTCG,0.103 ± 0.014
10,AACTTTGA,-0.167 ± 0.041
11,AGGAAAGA,-0.051 ± 0.033
12,ACCCGTCG,0.276 ± 0.021
13,TCCTCGCA,0.319 ± 0.0054
14,CAAAGATG,-0.0619 ± 0.041
15,CCATCCTC,-0.158 ± 0.11
16,CGAGGGCG,0.181 ± 0.02
17,ACACAGAC,0.0304 ± 0.021
18,AGGTTAAA,-0.3161 ± 0.0025
19,ATATATGG,-0.288 ± 0.057
20,ACCATATC,-0.0122 ± 0.049
21,CAGCTTGA,-0.0992 ± 0.0015
22,AGTCTAAG,-0.369 ± 0.019
